From the supplement of paper PMC11417369
± gives the standard deviation of the averaged measurements. The list shows a part of the results.

tested on: PfAP2-EXP AP2 domain (GST-tagged); experiment: gcPBM binding intensity (ln(normalized median fluorescence intensity)); higher = stronger DNA binding
In short: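 Binding of GST-tagged P. falciparum DNA-binding domains, expressed in E. coli and used at about 25 μg on average, was carried out for 1 h in 1× PBS containing 1% milk, 0.2 mg/ml BSA, 0.5% salmon testes DNA and 0.03% Triton X-100. The target was an Agilent 4 × 180k array of primer-extended double-stranded 36-bp intergenic genomic probes plus negative controls, read with Alexa488 anti-GST antibody at 488 nm. Binding intensity is the highest Masliner-normalised natural-log median intensity across replicate spots of either probe orientation.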

“GCATATTTTCCCTGTGAATAAAGTTTTTTTTTTTAT [XGTACX_negctrl_site87]” and “ATATAAAAAAAAAATTGTACAAAAATATATACATAT [XGTACX_site469]” are within error of each other in “gcPBM binding intensity (ln)” value: 8.54 ± 0.39 for the first, 8.53 ± 0.42 for the second.

“TATAAAGATATAAATGCACACGTATTAAAAAAAAAA [CACACA_site8223]” and “TTTATATATCAATACATTATGTATTAAGTCTTACAT [TGCATGCA_negctrl_site499]” are within error of each other in “gcPBM binding intensity (ln)” value: 8.74 ± 0.3 for the first, 8.63 ± 0.34 for the second.

“CAAAAAAAATTATACACACACACACCGATATATATA [CACACA_site4719]” and “GGTATATAAAAATATTGTACGAAAATATGCATATAA [XGTACX_site2501]” are within error of each other in “gcPBM binding intensity (ln)” value: 8.77 ± 0.45 for the first, 8.85 ± 0.35 for the second.

“TTTTAATTAAAAAAATATATAATAAAATTAAATTAT [CACACA_negctrl_site95]” and “AAATATAAAAAATATACACACATATAAAATCTATAT [CACACA_site7406]” are within error of each other in “gcPBM binding intensity (ln)” value: 8.23 ± 0.33 for the first, 8.4 ± 0.3 for the second.

“GTATGTTAATTTAATTGTACAAAAAGATACACTGAT [XGTACX_site5710]” and “TTTTAAAAAAAACAAAAACATTGTCATATGGAAAAT [CACACA_negctrl_site297]” are the same in “gcPBM binding intensity (ln)” value: 8.75 ± 0.34 for the first, 8.75 ± 0.41 for the second.

“AGGAACAATATATTTGCACACAAAAAATATATATTT [CACACA_site3316]” and “AACATACCCATATACACACACACATAAATACAGATA [CACACA_site4744]” are within error of each other in “gcPBM binding intensity (ln)” value: 8.62 ± 0.4 for the first, 8.73 ± 0.64 for the second.

“ATGTTAATCATTAAAAATAAAGTTTAATATAAGAAT [XGTACX_negctrl_site155]” and “CAAAACAAGCAAAAATGTACTTGATAAATATTTTCT [XGTACX_site1776]” are within error of each other in “gcPBM binding intensity (ln)” value: 8.45 ± 0.49 for the first, 8.37 ± 0.4 for the second.

“ATTTAATTCTTTTGTTATAAAATTTTAGTATATATA [CACACA_negctrl_site1649]” and “AATACCGGAAAGCAAACACACATTTTAAAACCATAA [CACACA_site3862]” are within error of each other in “gcPBM binding intensity (ln)” value: 8.7 ± 0.44 for the first, 8.79 ± 0.46 for the second.

“ATAATAAATGATAGCACACATATGTACATATATACA [CACACA_site864]” and “GATTATCTATCGCTTGAATGAAATGAAATCATGCAA [GTGCAC_negctrl_site471]” are within error of each other in “gcPBM binding intensity (ln)” value: 8.63 ± 0.24 for the first, 8.41 ± 0.42 for the second.

“AAATAAAATAAAAGCACACAAAATGTAAATAATTAT [CACACA_site2775]” and “CGCGAACATACATACACACACATATTTATATAGGTA [CACACA_site6241]” are within error of each other in “gcPBM binding intensity (ln)” value: 8.79 ± 0.32 for the first, 8.44 ± 0.46 for the second.

“AAAATACTTTGAATTTGTACATATAGACATAATATT [XGTACX_site6181]” and “AAAGAAATAAAAAAAAGTACACAATTATAAATATAT [XGTACX_site3428]” are within error of each other in “gcPBM binding intensity (ln)” value: 8.31 ± 0.38 for the first, 8.79 ± 0.33 for the second.

First: GTATGTAATATTTTAGTGCAAAAAAAAAAAAAAAAA [GTGCAC_site9790]
Second: TATATATATATAATTTGTACATATATATGTAACAAT [XGTACX_site8728]
The “gcPBM binding intensity (ln)” value of the first is lower: 8.32 ± 0.19 for the first, 9.72 ± 0.31 for the second.

“TTCTGCTACCACTTGAATGTCAATGAAATTAAAAAA [CACACA_negctrl_site1164]” and “ACTATAAATATTTATAAACACACAAATATATATATT [CACACA_site7891]” are within error of each other in “gcPBM binding intensity (ln)” value: 8.55 ± 0.19 for the first, 8.78 ± 0.3 for the second.

“ATTTATAAAACAGGCACACATATAATAAATTTTATA [CACACA_site2600]” and “TAATAATTATTGCACGCACACAAAAACCTATAGATT [CACACA_site2931]” are within error of each other in “gcPBM binding intensity (ln)” value: 8.7 ± 0.61 for the first, 8.68 ± 0.36 for the second.

“ATTTTTTTTTTTACAGTGGAACCATATTTGCTCATT [CACACA_negctrl_site940]” and “ATACAATACACCGAACGTACATAAATCTATCTTTTA [XGTACX_site3668]” are within error of each other in “gcPBM binding intensity (ln)” value: 8.48 ± 0.32 for the first, 8.66 ± 0.38 for the second.

“TTTTGTACAAAAATAATGCACACTATATCAAGTTTT [CACACA_site3595]” and “AAGAAAATATATTCACATGAAGAATTAAAATAAAAC [TGCATGCA_negctrl_site119]” are within error of each other in “gcPBM binding intensity (ln)” value: 8.9 ± 0.37 for the first, 8.86 ± 0.58 for the second.

“ATATAAAAAGGAAAAAGTACAAAAAAATGTTTGTGA [XGTACX_site8552]” and “TTTTTTTTTTTTTTTTTTGGTGAGAGAAGAAAATTC [CACACA_negctrl_site950]” are within error of each other in “gcPBM binding intensity (ln)” value: 8.52 ± 0.45 for the first, 8.06 ± 0.34 for the second.

Compared with “CAAATTATTATTTAAGCACACATGTTTATTTTTTTT [CACACA_site2672]”, “TATGTGCCAAAACACACACACATATATATATATATA [CACACA_site469]” is higher in “gcPBM binding intensity (ln)” value: 8.62 ± 0.32 for the first, 10.2 ± 0.11 for the second.

First: TAGGCCTTAAATCGTGTGCACTTTTTTTTTTTTTTT
Second: AAATATATCAATATATATATATATATATATATATAT [XGTACX_negctrl_site544]
The “gcPBM binding intensity (ln)” value of the first is lower: 8.925 ± 0.049 for the first, 10.1 ± 0.69 for the second.

“AAGCATACATCAAGCACACACACACCCACACCCACA [CACACA_site372]” and “TATGGTAAATACAACACACACACATATGTATTTATA [CACACA_site4666]” are within error of each other in “gcPBM binding intensity (ln)” value: 8.76 ± 0.48 for the first, 8.69 ± 0.43 for the second.

Going from “TGGATATAAAACAACGTGCACTTGGTTGATTTTAAA [GTGCAC_site9900]” to “ATTTATTTATATAATACACACAAATATCTTAATTAA [CACACA_site3993]”, the “gcPBM binding intensity (ln)” value falls from 8.68 ± 0.014 to 8.15 ± 0.34.

“TGTGCAAGATTTTTCTGTACATATATATAAATATAT [XGTACX_site1796]” and “AAATATTCTTGTTTAATACACACTGTAGTATTATAT [CACACA_site433]” are within error of each other in “gcPBM binding intensity (ln)” value: 8.08 ± 0.34 for the first, 8.62 ± 0.36 for the second.
